The supplement of paper PMC10724272
MIC of invasive clinical C. tropicalis isolates, CLSI broth microdilution (fluconazole 0.12-256 mg/L, up to 1,024 for the azole-resistant cluster and its neighbour group; other ranges not stated); higher = less susceptible. Call: susceptible or wild type [S] / resistant or non-wild type [R] by CLSI breakpoints or cut-offs; intermediate and dose-dependent carry no call. '<=' and '>=' at the end values are inferred; the source marks only some of them. Isolates are numbered anew.

Compound: CCCCCOc1ccc(-c2ccc(-c3ccc(C(=O)N[C@H]4C[C@@H](O)[C@@H](O)NC(=O)[C@@H]5[C@@H](O)[C@@H](C)CN5C(=O)[C@H]([C@@H](C)O)NC(=O)[C@H]([C@H](O)[C@@H](O)c5ccc(O)cc5)NC(=O)[C@@H]5C[C@@H](O)CN5C(=O)[C@H]([C@@H](C)O)NC4=O)cc3)cc2)cc1 [anidulafungin]
Assay: CLSI broth microdilution.

Test System	MIC
Candida tropicalis isolate 280 (ERG11 copies: 2, Erg11p: no key change)	0.03 mg/L [S]
Candida tropicalis isolate 21 (ERG11 copies: 2, Erg11p: G464S (homozygous))	0.03 mg/L [S]
Candida tropicalis isolate 308 (ERG11 copies: 2, Erg11p: no key change)	≤ 0.015 mg/L [S]
Candida tropicalis isolate 74 (ERG11 copies: 2, Erg11p: no key change)	0.03 mg/L [S]
Candida tropicalis isolate 91 (ERG11 copies: 2, Erg11p: no key change)	0.25 mg/L [S]
Candida tropicalis isolate 228 (ERG11 copies: 2, Erg11p: no key change)	≤ 0.015 mg/L [S]
Candida tropicalis isolate 85 (ERG11 copies: 2, Erg11p: no key change)	0.03 mg/L [S]
Candida tropicalis isolate 273 (ERG11 copies: 2, Erg11p: no key change)	0.06 mg/L [S]
Candida tropicalis isolate 13 (ERG11 copies: 2, Erg11p: no key change)	0.12 mg/L [S]
Candida tropicalis isolate 244 (ERG11 copies: 2, Erg11p: no key change)	0.12 mg/L [S]
Candida tropicalis isolate 294 (ERG11 copies: 2, Erg11p: no key change)	0.12 mg/L [S]
Candida tropicalis isolate 25 (ERG11 copies: 2, Erg11p: no key change)	0.12 mg/L [S]
Candida tropicalis isolate 71 (ERG11 copies: 2, Erg11p: no key change)	≤ 0.015 mg/L [S]
Candida tropicalis isolate 232 (ERG11 copies: 2, Erg11p: no key change)	0.06 mg/L [S]
Candida tropicalis isolate 127 (ERG11 copies: 2, Erg11p: no key change)	0.06 mg/L [S]
Candida tropicalis isolate 110 (ERG11 copies: 2, Erg11p: no key change)	0.03 mg/L [S]
Candida tropicalis isolate 442 (ERG11 copies: 2, Erg11p: no key change)	0.03 mg/L [S]
Candida tropicalis isolate 260 (ERG11 copies: 2, Erg11p: no key change)	≤ 0.015 mg/L [S]
Candida tropicalis isolate 236 (ERG11 copies: 2, Erg11p: no key change)	0.06 mg/L [S]
Candida tropicalis isolate 77 (ERG11 copies: 7, Erg11p: Y132F, S154F (heterozygous))	0.12 mg/L [S]
Candida tropicalis isolate 199 (ERG11 copies: 2, Erg11p: Y257H (homozygous))	0.06 mg/L [S]
Candida tropicalis isolate 406 (ERG11 copies: 2, Erg11p: no key change)	0.12 mg/L [S]
Candida tropicalis isolate 15 (ERG11 copies: 2, Erg11p: no key change)	0.12 mg/L [S]

Compound: OC(Cn1cncn1)(Cn1cncn1)c1ccc(F)cc1F [fluconazole]
Assay: CLSI broth microdilution.

Test System	MIC
Candida tropicalis isolate 55 (ERG11 copies: 2, Erg11p: Y132F, S154F (heterozygous))	16 mg/L [R]
Candida tropicalis isolate 302 (ERG11 copies: 2, Erg11p: no key change)	2 mg/L [S]
Candida tropicalis isolate 12 (ERG11 copies: 2, Erg11p: no key change)	1 mg/L [S]
Candida tropicalis isolate 354 (ERG11 copies: 2, Erg11p: Y132F, S154F (homozygous))	64 mg/L [R]
Candida tropicalis isolate 447 (ERG11 copies: 2, Erg11p: no key change)	32 mg/L [R]
Candida tropicalis isolate 350 (ERG11 copies: 2, Erg11p: no key change)	0.5 mg/L [S]
Candida tropicalis isolate 277 (ERG11 copies: 2, Erg11p: no key change)	1 mg/L [S]
Candida tropicalis isolate 117 (ERG11 copies: 8, Erg11p: Y132F, S154F, P397S (heterozygous))	512 mg/L [R]
Candida tropicalis isolate 216 (ERG11 copies: 2, Erg11p: no key change)	1 mg/L [S]
Candida tropicalis isolate 306 (ERG11 copies: 2, Erg11p: no key change)	1 mg/L [S]
Candida tropicalis isolate 380 (ERG11 copies: 7, Erg11p: Y132F, S154F (heterozygous))	512 mg/L [R]
Candida tropicalis isolate 1 (ERG11 copies: 2, Erg11p: no key change)	2 mg/L [S]
Candida tropicalis isolate 369 (ERG11 copies: 2, Erg11p: no key change)	2 mg/L [S]
Candida tropicalis isolate 280 (ERG11 copies: 2, Erg11p: no key change)	1 mg/L [S]
Candida tropicalis isolate 21 (ERG11 copies: 2, Erg11p: G464S (homozygous))	> 256 mg/L [R]
Candida tropicalis isolate 308 (ERG11 copies: 2, Erg11p: no key change)	2 mg/L [S]
Candida tropicalis isolate 74 (ERG11 copies: 2, Erg11p: no key change)	1 mg/L [S]
Candida tropicalis isolate 91 (ERG11 copies: 2, Erg11p: no key change)	1 mg/L [S]
